# Source: the supplement of paper PMC4967469
# How the values were obtained:
# Assay in all cases: Viability of human cancer cell lines after 72 h of drug (GDSC screen)
# JW-7-52-1 = compound: CCC(=O)N1CCN(c2ccc(-n3c(=O)ccc4cnc5ccc(-c6cnc7ccccc7c6)cc5c43)cc2C(F)(F)F)CC1 [JW-7-52-1]; conditions: top dose 1.2 µM; top dose inferred
# Method: (§1)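 Human cancer cell lines in 384-well plates, medium with 10% serum, drug for 72 h over a 256-fold dose range (nine 2-fold or five 4-fold steps up to the top dose). Adherent lines were fixed and stained with the nucleic acid dye Syto60, suspension lines read with resazurin; signal relative to control wells, capped at 0 and 100%. One two-parameter sigmoid per drug and line, fitted in a mixed model over all curves with the slope shared within a line.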
# Z-LLNle-CHO = compound: CCCC[C@@H](C=O)NC(=O)[C@H](CC(C)C)NC(=O)[C@H](CC(C)C)NC(=O)OCc1ccccc1 [Z-LLNle-CHO]; conditions: top dose 2.56 µM; top dose inferred
# Method: as §1
# ZG-10 = compound: CN(C)C/C=C/C(=O)Nc1ccc(C(=O)Nc2cccc(Nc3nccc(-c4cccnc4)n3)c2)cc1 [ZG-10]; conditions: top dose 10 µM; top dose inferred
# Method: as §1
# Tubastatin A = compound: CN1CCc2c(c3ccccc3n2Cc2ccc(C(=O)NO)cc2)C1 [Tubastatin A]; conditions: top dose 20 µM
# Method: as §1
# Rapamycin = compound: CO[C@H]1C[C@@H]2CC[C@@H](C)[C@@](O)(O2)C(=O)C(=O)N2CCCC[C@H]2C(=O)O[C@H]([C@H](C)C[C@@H]2CC[C@@H](O)[C@H](OC)C2)CC(=O)[C@H](C)/C=C(\C)[C@@H](O)[C@@H](OC)C(=O)[C@H](C)C[C@H](C)/C=C/C=C/C=C/1C [Rapamycin]; conditions: top dose 0.1 µM; top dose inferred
# Method: as §1
# XL-880 = compound: COc1cc2c(Oc3ccc(NC(=O)C4(C(=O)Nc5ccc(F)cc5)CC4)cc3F)ccnc2cc1OCCCN1CCOCC1 [XL-880]; conditions: top dose 5.12 µM; top dose inferred
# Method: as §1
# Temozolomide = compound: Cn1nnc2c(C(N)=O)ncn2c1=O [Temozolomide]; conditions: top dose 30 µM
# Method: as §1
# CI-1040 = compound: O=C(NOCC1CC1)c1ccc(F)c(F)c1Nc1ccc(I)cc1Cl [CI-1040]; conditions: top dose 10 µM; top dose inferred
# Method: as §1
# IPA-3 = compound: Oc1ccc2ccccc2c1SSc1c(O)ccc2ccccc12 [IPA-3]; conditions: top dose 32 µM; top dose inferred
# Method: as §1
Cell Line,AUC (JW-7-52-1),IC50 (JW-7-52-1),AUC (Z-LLNle-CHO),IC50 (Z-LLNle-CHO),AUC (ZG-10),IC50 (ZG-10),AUC (Tubastatin A),IC50 (Tubastatin A),AUC (Rapamycin),IC50 (Rapamycin),AUC (XL-880),IC50 (XL-880),AUC (Temozolomide),IC50 (Temozolomide),AUC (CI-1040),IC50 (CI-1040),AUC (IPA-3),IC50 (IPA-3)
"SHP-77 (small cell lung carcinoma, semi-adherent)",0.893,1160 nM,0.875,2070 nM,0.837,5720 nM,0.948,> 20000 nM,0.986,> 100 nM,0.707,1140 nM,0.991,> 30000 nM,0.979,> 10000 nM,0.953,> 32000 nM
"KINGS-1 (glioma, adherent)",0.458,55.2 nM,0.699,728 nM,0.805,7490 nM,0.966,> 20000 nM,0.623,15.5 nM,0.467,252 nM,0.967,> 30000 nM,0.923,> 10000 nM,0.979,> 32000 nM
"SIMA (neuroblastoma, adherent)",0.864,> 1200 nM,0.98,> 2560 nM,0.889,> 10000 nM,0.95,> 20000 nM,0.984,> 100 nM,0.611,674 nM,0.984,> 30000 nM,0.92,> 10000 nM,0.98,> 32000 nM
"EVSA-T (breast, adherent)",0.2,11.6 nM,0.789,958 nM,0.695,2010 nM,0.919,> 20000 nM,0.857,63.5 nM,0.798,2040 nM,0.991,> 30000 nM,0.941,> 10000 nM,0.982,> 32000 nM
"MFM-223 (breast, adherent)",0.988,> 1200 nM,0.988,> 2560 nM,0.611,1260 nM,0.985,> 20000 nM,0.989,> 100 nM,0.593,572 nM,0.987,> 30000 nM,0.909,> 10000 nM,0.811,16800 nM
"LB2241-RCC (kidney, adherent)",0.982,> 1200 nM,0.729,786 nM,0.664,1900 nM,0.984,> 20000 nM,0.972,> 100 nM,0.844,4340 nM,0.982,> 30000 nM,0.7,2460 nM,0.73,9890 nM
"OCUB-M (breast, adherent)",0.147,7.52 nM,0.685,487 nM,0.689,1940 nM,0.927,> 20000 nM,0.04,< 0.391 nM,0.745,1430 nM,0.989,> 30000 nM,0.952,> 10000 nM,0.838,17500 nM
"SR (lymphoid neoplasm, suspension)",0.498,74.3 nM,0.651,400 nM,0.552,852 nM,0.738,5490 nM,0.547,8.28 nM,0.402,177 nM,0.734,8000 nM,0.952,> 10000 nM,0.645,4810 nM
"NCI-H1304 (small cell lung carcinoma, suspension)",0.854,1060 nM,0.898,> 2560 nM,0.797,5130 nM,0.985,> 20000 nM,0.789,48.1 nM,0.779,2260 nM,0.981,> 30000 nM,0.978,> 10000 nM,0.984,> 32000 nM
"NCI-H446 (small cell lung carcinoma, semi-adherent)",0.613,158 nM,0.866,> 2560 nM,0.57,986 nM,0.825,13100 nM,0.963,> 100 nM,0.523,371 nM,0.962,> 30000 nM,0.983,> 10000 nM,0.985,> 32000 nM
"COLO-668 (small cell lung carcinoma, adherent)",0.688,252 nM,0.979,> 2560 nM,0.84,6890 nM,0.955,> 20000 nM,0.876,99.2 nM,0.613,652 nM,0.986,> 30000 nM,0.971,> 10000 nM,0.963,> 32000 nM
"KNS-42 (glioma, adherent)",0.477,64 nM,0.766,1130 nM,0.778,4860 nM,0.906,> 20000 nM,0.756,40.2 nM,0.7,1310 nM,0.969,> 30000 nM,0.944,> 10000 nM,0.981,> 32000 nM
"NALM-6 (B-cell leukaemia, suspension)",0.24,15.7 nM,0.766,800 nM,0.647,1480 nM,0.733,5040 nM,0.928,> 100 nM,0.485,294 nM,0.98,> 30000 nM,0.897,8820 nM,0.469,1670 nM
"NCI-H1876 (small cell lung carcinoma, adherent)",0.702,280 nM,0.887,> 2560 nM,0.628,1420 nM,0.952,> 20000 nM,0.937,> 100 nM,0.687,1080 nM,0.961,> 30000 nM,0.813,5490 nM,0.969,> 32000 nM
"NCI-H1694 (small cell lung carcinoma, suspension)",0.802,585 nM,0.923,> 2560 nM,0.605,1220 nM,0.89,> 20000 nM,0.941,> 100 nM,0.76,1800 nM,0.962,> 30000 nM,0.956,> 10000 nM,0.968,> 32000 nM
"ES8 (Ewing sarcoma, adherent)",0.328,25.9 nM,0.83,1450 nM,0.548,836 nM,0.886,19400 nM,0.879,89.2 nM,0.585,536 nM,0.986,> 30000 nM,0.929,> 10000 nM,0.953,> 32000 nM
"NCI-H82 (small cell lung carcinoma, suspension)",0.586,127 nM,0.865,2070 nM,0.687,2020 nM,0.955,> 20000 nM,0.978,> 100 nM,0.781,2010 nM,0.987,> 30000 nM,0.954,> 10000 nM,0.984,> 32000 nM
"LS-513 (large intestine, adherent)",0.711,305 nM,0.799,1290 nM,0.865,9430 nM,0.949,> 20000 nM,0.978,> 100 nM,0.642,803 nM,0.973,> 30000 nM,0.595,1150 nM,0.984,> 32000 nM
"RH-1 (rhabdomyosarcoma, adherent)",0.701,246 nM,0.905,2460 nM,0.674,1740 nM,0.804,8090 nM,0.991,> 100 nM,0.367,147 nM,0.962,> 30000 nM,0.974,> 10000 nM,0.834,16300 nM
"RL (B-cell lymphoma, suspension)",0.982,> 1200 nM,0.938,> 2560 nM,0.723,2520 nM,0.834,11500 nM,0.99,> 100 nM,0.532,389 nM,0.989,> 30000 nM,0.89,9920 nM,0.852,21700 nM
"JJN-3 (haematopoietic neoplasm, suspension)",0.579,118 nM,0.691,488 nM,0.733,2480 nM,0.917,> 20000 nM,0.788,35.5 nM,0.819,2250 nM,0.985,> 30000 nM,0.7,2020 nM,0.595,3470 nM
"no-11 (glioma, adherent)",0.279,14.9 nM,0.84,2450 nM,0.857,> 10000 nM,0.982,> 20000 nM,0.567,9.96 nM,0.614,714 nM,0.981,> 30000 nM,0.885,> 10000 nM,0.867,> 32000 nM
"GRANTA-519 (B-cell lymphoma, suspension)",0.83,650 nM,0.789,1010 nM,0.821,5020 nM,0.99,> 20000 nM,0.919,> 100 nM,0.769,1740 nM,0.98,> 30000 nM,0.944,> 10000 nM,0.969,> 32000 nM
"SH-4 (melanoma, adherent)",0.373,27.6 nM,0.712,896 nM,0.717,3670 nM,0.963,> 20000 nM,0.416,3.24 nM,0.643,990 nM,0.913,> 30000 nM,0.49,578 nM,0.969,> 32000 nM
"MZ1-PC (pancreas, adherent)",0.49,70 nM,0.831,2190 nM,0.744,3780 nM,0.858,> 20000 nM,0.931,> 100 nM,0.397,156 nM,0.977,> 30000 nM,0.908,> 10000 nM,0.746,12300 nM
"RPMI-8402 (T-cell lymphoblastic leukaemia, suspension)",0.522,85.3 nM,0.797,991 nM,0.635,1380 nM,0.762,6100 nM,0.668,16.8 nM,0.538,399 nM,0.981,> 30000 nM,0.974,> 10000 nM,0.646,4720 nM
"ES-2 (ovary, adherent)",0.642,175 nM,0.821,1260 nM,0.928,> 10000 nM,0.95,> 20000 nM,0.972,> 100 nM,0.645,765 nM,0.982,> 30000 nM,0.828,5190 nM,0.863,22400 nM
"BE-13 (lymphoblastic leukaemia, suspension)",0.413,44.2 nM,0.606,306 nM,0.4,338 nM,0.756,6450 nM,0.332,2.21 nM,0.409,184 nM,0.983,> 30000 nM,0.819,5220 nM,0.877,28600 nM

# The IC50 comes from the fitted curve, where viability falls to half of the control; a fit beyond the top or the lowest dose is shown as a bound at that dose. AUC is the area under the same curve over the 256-fold range up to the top dose, as a fraction: 1 means no effect, lower means more sensitive. For part of these data: An inferred top dose comes from the curve model; the source does not state it.
